From PubChem BioAssay AID1625 (Sanford-Burnham Center for Chemical Genomics, 2009)
This is one part of the list. Further columns of the screen follow, without active or inactive calls. The list favours compounds with an active or inconclusive main result.

Assay: insulin promoter activators in MIN6 cells, imaging, high-content screening, mouse beta cells (AID 1625);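 note: total cells summed across four imaged fields per well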
Conditions: MIN6 insulin promoter-GFP reporter, measured here: cytotoxicity, nuclei count, at 5 µM

| Structure (SMILES) | cell count [cells] |
| --- | --- |
| FC(F)(F)c1ccc2c(c1)N(CCCN1CCN(CCCl)CC1)c1ccccc1S2 | 458 |
| CCOc1ccc(-c2c(C)n(-c3ccc(OCC)cc3)c3[n+]2CCCCC3)cc1 | 272 |
| CCCCCCn1c(O)c(C=Nc2ccccc2N2CCOCC2)c(=O)[nH]c1=S | 1030 |
| Cc1ccccc1NC1=NCC(C)S1 (centres undefined) | 440 |
| Cc1nc2cc(C(F)(F)F)ccc2n1C1CCN(Cc2nnnn2CCc2ccccc2)CC1 | 383 |
| CCN(CC)C1=NC(=[N+](CC)CC)c2ccccc21 | 443 |
| CCn1nc(-c2cccs2)nc2c(=O)n(C)c(=O)nc1-2 | 469 |
| C=CCN1C(=O)/C(=C\c2ccc(N3CCOCC3)o2)C(=O)NC1=S | 1270 |
| Nc1cc2nc3ccccc3nc2cc1N | 1360 |
| Nc1c([N+](=O)[O-])cc(F)c(N2CCNCC2)c1Br | 490 |
| Cc1cc2c(C(F)(F)F)cc(=O)oc2c2c1NCCC2 | 1580 |
| N=c1c2c(n(Cc3ccc(Cl)cc3Cl)c3c1CCC3)CCCC2 | 348 |
| COc1cc2c(cc1OC)[C@@H]1C(=O)c3ccc4c(c3O[C@@H]1CO2)C[C@H](C(C)C)O4 | 477 |
| CCn1nc(-c2ccccc2)nc2c(=O)n(C)c(=O)nc1-2 | 322 |
| CN1CC=C2C(C#N)=C(N)C(C#N)(C#N)C(c3ccncc3)C2C1 (centres undefined) | 1110 |
| CCOC(=O)C1C(=O)NC2(C)CC1c1cc(OC)ccc1O2 (centres undefined) | 305 |
| CCCCCCCCCOc1ccc2[nH]cc(CCN)c2c1 | 341 |
| CN(C)c1ccc(-[n+]2c(-c3ccccc3)cc(-c3ccccc3)cc2-c2ccccc2)cc1 | 315 |
| CN1/C(=C\C=C\C2=[N+](C)c3ccc4ccccc4c3C2(C)C)C(C)(C)c2ccccc21 | 208 |
| CC(=O)OC[C@]12CCC(C)=C[C@H]1O[C@@H]1[C@H](O)[C@@H](OC(C)=O)[C@@]2(C)[C@]12CO2 | 242 |
| COc1ccc(CC(=O)N2CCN(C)CC2)cc1 | 1500 |
| CN1C(=O)C(=Cc2ccc(N3CCCCC3)o2)C(=O)N(C)C1=S | 1420 |
| CC1CCCC(C2(O)C(=O)Nc3ccccc32)C1=O (centres undefined) | 1330 |

| Structure (SMILES) | cell count [cells] |
| --- | --- |
| CN=C(SCc1cc2c(cc1Cl)OCO2)c1c(O)n(C)c(=O)n(C)c1=O | 420 |
| Cc1nc2nc(SCC(=O)N3CCC4(CC3)OCCO4)nn2c(C)c1Cc1ccccc1 | 360 |
| CC1=CC(=Cc2sc3ccccc3[n+]2C)C=C(C)O1 | 267 |
| O=C(/C=C/c1c[nH]c2ccccc12)c1c(O)n(CCc2ccccc2)c(=O)[nH]c1=O | 1170 |
| CCCCn1c(O)c(C(=O)/C=C/c2c[nH]c3ccccc23)c(=O)[nH]c1=O | 904 |
| Cc1cc(OC(=O)c2ccco2)c2c3c(c(=O)oc2c1)CCCC3 | 367 |
| C[C@H]1C[C@@H](C)C(=O)[C@@H]([C@H](O)CC2CC(=O)NC(=O)C2)C1 | 340 |
| CN(C)c1ccc(/C=C/c2cc[n+](C)c3ccccc23)cc1 | 352 |
| CN1C2CCC1/C(=C/c1ccccn1)C(=O)/C2=C\c1ccccn1 | 253 |
| CCN(CC)c1ccc(/C=N/c2sc3c(c2C#N)C2CCN3CC2)c(O)c1 | 1180 |
| O=[N+]([O-])c1ccc(NCc2ccccc2)c2nonc12 | 1220 |
| CCc1ccccc1N1C(=O)/C(=C/c2ccc(N3CCN(C)CC3)o2)C(=O)NC1=S | 1240 |
| Clc1ccc2c(c1)C(OC1CN3CCC1CC3)c1ccccc1CS2 (centres undefined) | 415 |
| CC1(C)CN=C(Nc2ccc(F)c(F)c2)S1 | 289 |
| CCOc1cccc(=NC2CCCCC2)c2c(C)n(C)c(C)c12 | 279 |
| CC1(C)C[C@H]2C=C(C=O)[C@]3(C=O)C[C@]3(C)[C@H]2C1 | 479 |
| COc1cc([C@@H]2c3cc4c(cc3[C@@H](OC)[C@H]3COC(=O)[C@H]23)OCO4)cc(OC)c1O | 480 |
| O=c1[nH]c(=O)n(-c2ccc(F)cc2)c(O)c1C=Nc1ccccc1N1CCCC1 | 1430 |
| CCOc1ccc(-c2cc(C)[n+](CCO)c(-c3ccc(OCC)cc3)c2)cc1 | 474 |
| CN1CCN(c2ccc(/C=C3\C(=O)NC(=S)N(c4cccc(Br)c4)C3=O)o2)CC1 | 1230 |
| CN1CCN(c2ccc([N+](=O)[O-])c3no[n+]([O-])c23)CC1 | 243 |
| CCOC(=O)c1c(C)n(Cc2ccccc2)c2ccc(OCC(O)Cn3nc(C)cc3C)cc12 (centres undefined) | 387 |
| CCC(=NCc1ccc(F)cc1)c1c(O)n(C)c(=O)n(C)c1=O | 315 |

| Structure (SMILES) | cell count [cells] |
| --- | --- |
| c1ccc2c(N3CCNCC3)nsc2c1 | 1070 |
| CCOc1cccc(=NC2CCCCC2)c2c(C)[nH]c(C)c12 | 189 |
| O=C1NC(=S)NC(=O)C1=Cc1cccc2cc3ccccc3cc12 | 489 |
| CC[n+]1c(/C=C/C=C/c2ccc(N(C)C)cc2)sc2ccccc21 | 208 |
| O=C(c1ccccc1)C(CN1CCCC1)c1ccccc1 (centres undefined) | 412 |
| Cc1ccc(-c2cc(-c3ccc(C)cc3)[n+](C)o2)cc1 | 263 |
| COC(=O)C[C@]1(C(=O)OC)CN(C#N)N(c2ccc(Cl)cc2)C12c1ccccc1-c1ccccc12 | 355 |
| C=C(C=O)CC1CC(O)[C@]2(C)OC3CC4OC5C[C@]6(C)O[C@]7(C)CCC8OC9C[C@]%10(C)OC%11C(C)=CC(=O)OC%11CC%10OC9C[C@@H](C)C8OC7CC6O[C@]5(C)CC5OC5C4OC3CC2O1 (some centres undefined) | 151 |
| CN1/C(=C\C=C2C(=O)NC(=S)NC2=O)C(C)(C)c2ccccc21 | 1320 |
| CC1CCC(C(C)C)C(OC(=O)Cn2c(COc3ccccc3)[n+](C)c3ccccc32)C1 (centres undefined) | 401 |
| CCN1/C(=C\C=C\C2=[N+](CC)c3ccccc3C2(C)C)C(C)(C)c2ccccc21 | 278 |
| CCCCCCCn1c(=O)c(C(=O)Nc2cnccn2)c(O)c2ccccc21 | 424 |
| Cn1ncnc2c(=O)n(C)c(=O)nc1-2 | 227 |
| CN(C)C(=S)SSC(=S)N(C)C | 459 |
| Cc1ccc(C(=O)N[C@@H](C)CN2C3=NC[C@H](Cc4ccccc4)N3C[C@H]2Cc2ccc(O)cc2)cc1Br | 473 |
| CC1CCC/C=C/C2CC(O)CC2C(O)/C=C/C(=O)O1 (centres undefined) | 296 |
| Cc1nc2c(=O)n(C)c(=O)nc-2n(C)n1 | 489 |
| O=C1C(=O)c2ccccc2-c2ccccc21 | 262 |
| C=CCN1C(=O)/C(=C/c2ccc(N3CCOCC3)o2)C(=O)NC1=S | 1230 |
| CN(C)c1ccc(/C=C/C=C/c2sc3ccccc3[n+]2C)cc1 | 310 |
| CC/C(=C\C=C\[C@@H]1C=C[C@@H]2CCC[C@H]2[C@@H]1C(=O)c1ccc[nH]1)[C@@H]1O[C@@H]([C@@H](C)C(=O)O)CC[C@@H]1C | 455 |
| CCCCc1ccc2[nH]cc(CCN)c2c1 | 1150 |
| CCCCCCCCCCCCn1ccc(=N)cc1 | 202 |
